Measured values from patent US11098072B2, “Alkenyl and beta-substituted phosphonates as antimicrobial agents” (The George Washington University, priority 2017, dated 2021).

Tested on: P. falciparum strain 3D7
Conditions: not given

| SMILES | rescue of parasite growth by exogenous IPP |
| --- | --- |
| O=C(c1ccccc1)N(O)C/C=C/P(=O)([O-])O.[Na+] [Compound 32a, Sodium hydrogen [(1E)-3-(N-hydroxy-1-phenylformamido)prop-1-en-1-yl]phosphonate] | rescues growth |
| CC(C)(C)C(=O)OCOP(=O)(/C=C/CN(O)C=O)OCOC(=O)C(C)(C)C [Compound 18a, [({[(2,2-dimethylpropanoyl)oxy]methoxy}[(1E)-3-(N-hydroxyformamido)prop-1-en-1-yl]phosphoryl)oxy]methyl 2,2-dimethylpropanoate] | effectively rescues growth |
| CC(C)(C)C(=O)OCOP(=O)(/C=C/CN(O)C(=O)c1ccccc1)OCOC(=O)C(C)(C)C [Compound 33a, [({[(2,2-dimethylpropanoyl)oxy]methoxy}[(1E)-3-(N-hydroxy-1-phenylformamido)prop-1-en-1-yl]phosphoryl)oxy]methyl 2,2-dimethylpropanoate] | rescues growth |
| CC(=O)N(C/C=C/P(=O)([O-])O)OCc1ccc(C(C)C)cc1.[Na+] [Compound 16e, Sodium hydrogen [(1E)-3-(N-{[4-(propan-2-yl)phenyl]methoxy}acetamido)prop-1-en-1-yl]phosphonate] | restored by IPP supplementation |
| O=CN(O)CCCP(=O)(O)O [Fosmidomycin, reference compound] | restoration effect |

Same assay, conditions: strain 3D7, growth by PicoGreen after 72 h

| SMILES | rescue of parasite growth by exogenous IPP |
| --- | --- |
| O=CN(O)C/C=C/P(=O)([O-])O.[Na+] [Compound 12a, Sodium hydrogen [(1E)-3-(N-hydroxyformamido)prop-1-en-1-yl]phosphonate] | effectively rescues growth |
